# Data as given in PubChem BioAssay (NCATS).
# “And” between values parts separate entries of the source, which are not always exact repeats. Equal entries are not always repeated. The shares of active, inactive and inconclusive entries below differ from those in the screen. For some of these results: Potencies of inconclusive entries are left out as doubtful fits. Some structures have more than one record in an assay (separate samples or runs), and their calls can disagree. The source made the active and inactive calls. Unless noted, calls follow the shape of the dose curve; as a rule, active = well fitted curve in the direction sought with a large enough effect; inconclusive = small, poorly fitted or top-dose-only effect, or another doubt; inactive = no such curve, though single readings can be large; an effect the other way counts as inactive or inconclusive.
# What was measured:
# [1] = qHTS of pediatric cancer cell lines to identify multiple opportunities for drug repurposing: Primary screen for SK-N-SH cells (AID 1347098); details: SK-N-SH viability, CellTiter-Glo luminescence, 48 h; activity change, negative = cytotoxic: at 57 µM (top of the series); also: nearly all actives have a fitted effect of over 65% in size; also: potency is read from the fitted curve at half-maximal effect;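 as to activity change, negative = cytotoxic: DMSO served as neutral control and bortezomib at 2.3 µM as positive control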
# Outline: (§1)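 Cells (500-1,000/well) rested 5 h, then received compounds for 48 h; metabolically active cells were measured by CellTiter-Glo luminescence. Final concentrations spanned up to 46 µM (MIPE, 11-point) or 0.59 nM-46 µM (NPC, 8-point) in primary screens, 11-point in follow-ups.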
# [2] = qHTS of pediatric cancer cell lines to identify multiple opportunities for drug repurposing: Primary screen for Rh41 cells (AID 1347108);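 also: luminescence drop marks cytotoxic hits; nearly all actives have a fitted effect of over 70% in size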
# Outline: (§2)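 Cells seeded at 500-1,000 cells/well in growth media, rested 5 hours at 37 degrees C, 5% CO2, then dosed; MIPE compounds at 11-point (from 0.78 nM) and NPC at 8-point (from 0.59 nM) final concentrations. Viability by CellTiter-Glo luminescence after 48 hours.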
# [3] = system: UISO; assay: qHTS assay to identify novel small-molecules to repurpose for Merkel cell carcinoma treatment (AID 1296009); details: MCC and control cell lines, CellTiter-Glo viability, 72 h; activity change, negative = cytotoxicity: at 46 µM (top of the series); also: nearly all actives have a fitted effect of over 60% in size; also: potency is read from the fitted curve at half-maximal effect
# Outline: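 After compound transfer in DMSO, plates were kept 72 hr at 37 degree celsius. Luminescent ATP signal from CellTiter-Glo served as viability measure, normalized against DMSO and no-cell controls.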
# [4] = Drug repurposing screens with cells derived from glioblastoma tumor samples (AID 1345199); details: GBM patient neurospheres viability, ATP luminescence, 48 h; Potency: tumour line A unless noted; series mostly up to 46 µM; also: nearly all actives have a fitted effect of over 40% in size; also: potency is read from the fitted curve at half-maximal effect
# Outline: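 Four patient lines of CD133+ GBM neurospheres were screened at several concentrations; hits were retested in those lines plus three slower-growing GBM lines, using 48-hour treatment and ATP-based viability.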
# [5] = qHTS of pediatric cancer cell lines to identify multiple opportunities for drug repurposing: Primary screen for SK-N-MC cells (AID 1347093); details: SK-N-MC viability, CellTiter-Glo luminescence, 48 h; activity change, negative = cytotoxic: at 46 µM (top of the series); also: potency is read from the fitted curve at half-maximal effect
# Outline: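 Metabolically active cells were quantified by ATP-dependent luminescence (CellTiter-Glo, 15 min at room temperature) following 48 h treatment. Cells had been plated at 500-1,000 per well and settled for 5 h beforehand.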
# [6] = qHTS of pediatric cancer cell lines to identify multiple opportunities for drug repurposing: Primary screen for Saos-2 cells (AID 1347097); details: Saos-2 viability, CellTiter-Glo ATP luminescence, 48 h; activity change, negative = cytotoxic: at 46 µM (top of the series); also: nearly all actives have a fitted effect of over 40% in size
# Outline: as §2
# [7] = qHTS of pediatric cancer cell lines to identify multiple opportunities for drug repurposing: Primary screen for NB1643 cells (AID 1347099); also: nearly all actives have a fitted effect of over 50% in size; also: potency is read from the fitted curve at half-maximal effect
# Outline: as §2
# [8] = qHTS of pediatric cancer cell lines to identify multiple opportunities for drug repurposing: Primary screen for BT-12 cells (AID 1347101); also: nearly all actives have a fitted effect of over 25% in size; also: potency is read from the fitted curve at half-maximal effect
# Outline: as §1
# [9] = qHTS of pediatric cancer cell lines to identify multiple opportunities for drug repurposing: Primary screen for OHS-50 cells (AID 1347103); also: nearly all actives have a fitted effect of over 40% in size
# Outline: as §1
# [10] = system: CP335; assay: qHTS profiling for inhibitors of Plasmodium falciparum proliferation (AID 504749); also: potency is read from the fitted curve at half-maximal effect; nearly all actives have a fitted effect of over 60% in size; details: P. falciparum in erythrocytes, SYBR Green DNA, 72 h; series mostly up to 28.7 µM
# Outline: (§3)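 Three-day growth assay of blood-stage parasites in erythrocytes (0.3% parasitemia, 2.5% hematocrit) at 37 C, 5% CO2, quantified by SYBR Green DNA staining after overnight detergent lysis.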
# [11] = system: GB4; assay: as above; details: P. falciparum in erythrocytes, SYBR Green DNA, 72 h; series mostly up to 28.7 µM
# Outline: as §3
# [12] = system: Tov112D; assay: Primary qHTS to identify gynecologic anti-cancer compounds using libraries of approved drugs and bioactive compounds (AID 1345084); details: Gynecologic cancer cell panel viability, ATPlite luminescence, 48 h; activity change, negative = cytotoxicity: at 57.5 µM (top of the series); also: potency is read from the fitted curve at half-maximal effect; nearly all actives have a fitted effect of over 55% in size
# Outline: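 48 h compound exposure at 37 C, 5% CO2; five-point qHTS. ATPlite luminescence readout of cell ATP.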
# [13] = A High-Content qHTS Against Drug Library for the Identification of Small Molecules that Inhibit DYT1 Early Onset Primary Dystonia-Associated Cell Pathology (AID 1645839; calls by dose curve; also: potency is read from the fitted curve at half-maximal effect)
# Outline: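 In this high-content image screen, delE TorsinA mislocalization in inducible Flp-In 293 cells is scored as %pathology, with cell count serving as the counterscreen. Compound exposure lasts 48 h under tetracycline induction in reduced-serum medium.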
# [14] = qHTS of pediatric cancer cell lines to identify multiple opportunities for drug repurposing: Primary screen for BT-37 cells (AID 1347094); also: potency is read from the fitted curve at half-maximal effect
# Outline: as §2
# [15] = molecular target: Cytochrome P450 2C9 (Homo sapiens) (UniProt P11712); assay: Cytochrome P450 family 2 subfamily C member 9 (CYP2C9) small molecule antagonists: luciferase biochemical (cell-free) qHTS assay (AID 1645842; active = well fitted curve in the direction sought with a large enough effect in the repeat runs; inconclusive = weak or mixed curves; inactive = no such curve, though single readings can be large; an effect the other way counts as inactive or inconclusive; also: potency is read from the fitted curve at half-maximal effect; nearly all actives have a fitted effect of over 55% in size)
# Chain of UniProt P11712 (P11712 whole entry, looked up): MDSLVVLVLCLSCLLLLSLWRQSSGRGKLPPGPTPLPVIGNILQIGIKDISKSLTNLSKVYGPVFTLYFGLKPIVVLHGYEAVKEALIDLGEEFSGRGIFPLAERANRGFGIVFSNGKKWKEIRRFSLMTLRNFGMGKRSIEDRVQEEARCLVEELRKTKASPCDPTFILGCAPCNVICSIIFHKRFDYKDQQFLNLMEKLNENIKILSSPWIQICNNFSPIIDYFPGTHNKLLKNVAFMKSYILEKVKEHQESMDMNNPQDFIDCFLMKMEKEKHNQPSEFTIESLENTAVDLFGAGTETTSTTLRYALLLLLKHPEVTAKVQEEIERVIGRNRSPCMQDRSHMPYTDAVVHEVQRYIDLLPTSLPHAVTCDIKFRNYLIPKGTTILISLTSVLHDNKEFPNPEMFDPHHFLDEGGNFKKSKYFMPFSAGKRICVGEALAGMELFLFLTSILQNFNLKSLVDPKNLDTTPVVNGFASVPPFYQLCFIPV
# Outline: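 Luminescence, after 20 min with luciferin detection reagent, reflected CYP2C9 turnover during a 1 h NADPH-driven reaction at 37C. Enzyme-substrate mix contained 0.4% bovine serum albumin and was preincubated with compound 10 min at room temperature.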
# [16] = molecular target: Glutathione peroxidase 1 (Homo sapiens) (UniProt P07203); assay: Primary qHTS Assay for Inhibitors of Recombinant Selenoprotein Glutathione Peroxidase 1 (GPX1) (AID 1845191); details: activity, negative = inhibition: at 48.8 µM (top of the series); also: potency is read from the fitted curve at half-maximal effect; nearly all actives have a fitted effect of over 65% in size
# Chain of UniProt P07203 (P07203 whole entry, looked up): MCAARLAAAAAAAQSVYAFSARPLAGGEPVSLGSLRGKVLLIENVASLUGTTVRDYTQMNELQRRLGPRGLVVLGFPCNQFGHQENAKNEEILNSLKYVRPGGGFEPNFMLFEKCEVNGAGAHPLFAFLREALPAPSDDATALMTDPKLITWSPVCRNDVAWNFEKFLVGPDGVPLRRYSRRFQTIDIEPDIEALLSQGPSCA
# Outline: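 10 nM GPX1 + cpd, 30 min RT; start w/ 1 mM GSH, 0.5 mM cumene hydroperoxide, 0.5 mM NADPH, 100 nM GR, 0.01% BSA; buffer 50 mM Tris-HCl pH 7.5, 2 mM EDTA, 150 mM NaCl; Fl 340/450, 0 & 15 min.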
# [17] = molecular target: Cytochrome P450 2D6 (Homo sapiens) (UniProt P10635); assay: Cytochrome P450 family 2 subfamily D member 6 (CYP2D6) small molecule antagonists: luciferase biochemical (cell-free) qHTS assay (AID 1645840; active = well fitted curve in the direction sought with a large enough effect in the repeat runs; inconclusive = weak or mixed curves; inactive = no such curve, though single readings can be large; an effect the other way counts as inactive or inconclusive; also: nearly all actives have a fitted effect of over 55% in size; also: potency is read from the fitted curve at half-maximal effect)
# Chain of UniProt P10635 (P10635 whole entry, looked up): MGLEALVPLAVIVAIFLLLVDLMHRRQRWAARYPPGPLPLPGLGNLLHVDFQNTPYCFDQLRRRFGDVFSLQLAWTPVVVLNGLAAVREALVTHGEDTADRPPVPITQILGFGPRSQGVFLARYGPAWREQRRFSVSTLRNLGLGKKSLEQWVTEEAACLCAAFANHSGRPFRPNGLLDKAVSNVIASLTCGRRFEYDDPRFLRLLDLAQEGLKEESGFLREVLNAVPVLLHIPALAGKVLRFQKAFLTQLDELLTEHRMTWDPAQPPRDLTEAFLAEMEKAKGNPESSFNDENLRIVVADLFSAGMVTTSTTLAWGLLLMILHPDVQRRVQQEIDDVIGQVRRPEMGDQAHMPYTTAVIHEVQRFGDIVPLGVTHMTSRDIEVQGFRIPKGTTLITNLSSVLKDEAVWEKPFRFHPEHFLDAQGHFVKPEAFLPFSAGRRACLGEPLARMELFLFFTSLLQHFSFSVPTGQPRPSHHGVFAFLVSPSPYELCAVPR
# Outline: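 P450-Glo luminescent screen: recombinant CYP2D6 enzyme–proluciferin substrate mix preincubated with compound 10 min at room temperature, then NADPH regeneration added for 1 h at room temperature. Detection reagent added for 20 min; luciferin light read as relative luminescence units.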
# [18] = Primary redox qHTS assay for identification of artifact compounds. (AID 1845223); also: potency is read from the fitted curve at half-maximal effect
# Outline: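 Amplex Red (25 uM) and HRP (250 mU/mL) in HBSS, with compounds for 15 min, then 250 uM DTT for 30 min, room temperature, dark. Fluorescence 525/598 nm read; normalized to DMSO and 10 uM DA3003; Hill fit.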
# [19] = system: Zika virus NS2B-NS3 protease (linked construct); assay: Primary screen NINDS Rhodamine qHTS for Zika virus inhibitors (AID 1347160); also: potency is read from the fitted curve at half-maximal effect; nearly all actives have a fitted effect of over 55% in size
# Outline: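 Kinetic fluorescence (Ex 480 nm, Em 540 nm) over 15 min with 1.5 microM Rhodamine110 peptide and 25 nM linked protease.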
# Tags tell the direction and shape of the fitted curve.
smiles,measurement,setting,value
O=c1[nH]c(=O)n([C@H]2C[C@H](O)[C@@H](CO)O2)cc1Br,Potency,[1],inactive
same,Potency,[2],inactive
same,Potency,[3],"inconclusive [inhibitor, partial curve]"
same,Potency,[4],"inconclusive [inhibitor, partial curve]"
Cc1cc(NS(=O)(=O)c2ccc(N)cc2)nc(C)n1,Potency,[5],inactive
same,Potency,[6],inactive
same,Potency,[3],"inconclusive [inhibitor, full curve]"
same,Potency,[4],inactive
NC1=NCC2c3ccccc3Cc3ccccc3N12 (stereo not given),Potency,[5],"inconclusive [cytotoxic, single point]"
same,Potency,[1],inactive
same,Potency,[7],inactive
same,Potency,[8],"inconclusive [cytotoxic, partial curve, poor fit]"
same,Potency,[9],inactive
same,Potency,[10],"inconclusive [inhibitor, partial curve, poor fit]"
same,Potency,[11],"inconclusive [inhibitor, partial curve]"
same,Potency,[12],"inconclusive [cytotoxic, single point]"
O=C1Nc2ccccc2C1(c1ccc(O)cc1)c1ccc(O)cc1,Potency,[5],"inconclusive [cytotoxic, single point]"
same,Potency,[6],inactive
same,Potency,[1],"inconclusive [cytotoxic, partial curve]"
same,Potency,[7],"inconclusive [cytotoxic, single point]"
same,Potency,[13],"inconclusive [inhibitor, partial curve, poor fit]"
same,Potency,[3],"inconclusive [inhibitor, partial curve]"
same,Potency,[12],"inconclusive [cytotoxic, partial curve, poor fit]"
COc1ccc2[nH]c(S(=O)Cc3ncc(C)c(OC)c3C)nc2n1 (stereo not given),Potency,[14],inactive
same,Potency,[6],inactive
same,Potency,[2],inactive
same,Potency,[15],"inconclusive [inhibitor, single point]"
same,Potency,[16],active: 9.04 µM and active: 11.4 µM
same,Potency,[10],"inconclusive [inhibitor, single point]"
same,Potency,[11],"inconclusive [inhibitor, partial curve]"
same,Potency,[4],active: 11.2 µM
CC(C)[C@@H]1CC[C@@H](C)CC1=O,Potency,[5],"inconclusive [cytotoxic, full curve, poor fit]"
same,Potency,[8],inactive
same,Potency,[17],inactive
same,Potency,[3],inactive
same,Potency,[4],inactive
CCN(CC)CCNC(C(=O)OCCC(C)C)c1ccccc1 (stereo not given),Potency,[9],inactive
same,Potency,[17],active: 0.776 µM
same,Potency,[10],"inconclusive [inhibitor, single point]"
same,Potency,[11],active: 7.57 µM
same,Potency,[3],inactive
same,Potency,[4],active: 25.1 µM
CN1CCN(C2=Nc3cc(F)ccc3Cc3ccccc32)CC1,Potency,[5],"inconclusive [cytotoxic, partial curve, poor fit]"
same,Potency,[14],"inconclusive [cytotoxic, single point]"
same,Potency,[1],"inconclusive [cytotoxic, partial curve]"
same,Potency,[7],"inconclusive [cytotoxic, single point]"
same,Potency,[8],"inconclusive [cytotoxic, single point]"
same,Potency,[10],"inconclusive [inhibitor, partial curve]"
same,Potency,[11],"inconclusive [inhibitor, partial curve]"
COC(=O)/C=C/C=C/C(=O)OC1C=C2COC(=O)C2(O)C2(C)CCCC(C)(C)C12 (stereo not given),Potency,[18],inactive
CO[C@H]1C[C@@H]2CC[C@@H](C)[C@@](O)(O2)C(=O)C(=O)N2CCCC[C@H]2C(=O)O[C@H]([C@H](C)C[C@H]2CC[C@@H](OP(C)(C)=O)[C@H](OC)C2)CC(=O)[C@H](C)/C=C(\C)[C@@H](O)[C@@H](OC)C(=O)[C@H](C)C[C@H](C)/C=C/C=C/C=C/1C,Potency,[18],"inconclusive [activator, full curve, poor fit]"
CC1(C)CC[C@]2(C(=O)O)CC[C@]3(C)C(=CCC4[C@@]5(C)C[C@@H](O)[C@H](O)[C@](C)(CO)C5CC[C@]43C)[C@@H]2[C@@H]1O (stereo not given in full),Potency,[12],inconclusive
CCOC(=O)c1cnc2ccc(-c3cncc(NS(=O)(=O)c4ccccc4)c3)cn12,Potency,[19],"inconclusive [inhibitor, partial curve]"
same,Potency,[17],"inconclusive [inhibitor, single point]"
same,Potency,[15],active: 0.134 µM
